Test results from article PMC12136788.
This is one part of the list.

T1: UNK ZnF1-3 (human, UniProt Q9C0B0 31-174)
T1 sequence: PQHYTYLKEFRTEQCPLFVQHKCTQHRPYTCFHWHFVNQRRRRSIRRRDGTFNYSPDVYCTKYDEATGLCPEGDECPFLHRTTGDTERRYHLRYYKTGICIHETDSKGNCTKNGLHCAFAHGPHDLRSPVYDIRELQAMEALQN

B1: chr7:35872420:35872421:+_ENSG00000122545_ENST00000399035|perfect_dup|FALSE|FALSE (ssRNA)
RNA: GGGAGUUCUACAGUCCGACGAUCCACCGAUUUUCUGUAUACUUGAUUUGGGAGAUUGGCAAAUCCCACAUAGCCUUCAAGGUUCUUCUGUUGUACCAUGGUGCUGCUGUUGACGCUCCUCUCCUCAGCAGCAGCGGAUCUCGCCAACAGAGGAUUGAGCAUCA
B2: chr5:22970553:22970554:+_ENSMUSG00000029004_ENSMUST00000094962|mus_mus|FALSE|FALSE (ssRNA)
RNA: GGGAGUUCUACAGUCCGACGAUCAGCACUGGAAGUUUCAUCAAAAUUAGGAGUGGUAAAUAUGCCUACUUCGUUUUUGCUAAUGAGACCUGAUGGAGGAGGGGAUGCUGGAGGUGUUGGAGGAGGACGAGCACCAUAAUUAUGCAACAGAGGAUUGAGCAUCA
B3: 46054269_46054389_565_CDS_ENSG00000136152_ENST00000349995|human|control|control (ssRNA)
RNA: GGGAGUUCUACAGUCCGACGAUCGGUUCCUGUCUUAUUGGACACAAAAAGAUACUGUUUCUGCAAAGACUCCAGAUGCUGAAGAGCACUGUUUACAUCAUUCAAUAUAGCAUCACACUGCUCCUGAAACCCAGACAAGUAAUCCAACAGAGGAUUGAGCAUCA
B4: chr16:8621372:8621373:+_ENSMUSG00000057880_ENSMUST00000065987|mus_mus|motif|central (ssRNA)
RNA: GGGAGUUCUACAGUCCGACGAUCUGUGGUUUUCUACAGUGAACUGUAUAUAUGCGUACAGAGAUAGAUAGGUACAGAUCGGUUAGUACAUGAAUGUGCACAGUUUUUCAUGGUUACUGAGCAUCAGUAAAAAUUAUAAAAAUACAACAGAGGAUUGAGCAUCA
B5: chr12:124105631:124105632:-_ENSG00000111361_ENST00000424014|hu_mus|FALSE|FALSE (ssRNA)
RNA: GGGAGUUCUACAGUCCGACGAUCUACCGUAUCUAAAUUGUUCAUAUAAUUUAUUGAUUUGUUUCCACAUUUAACUUUAAAAAGCUGUUUGGGUUCUAACCAUGUUUAAAGUAAACUCCCAUUUUCUAUAGACAACAUUCUGUGCAACAGAGGAUUGAGCAUCA
B6: 128510396_128511676_419_CDS_ENSMUSG00000014355_ENSMUST00000014499|mouse|control|control (ssRNA)
RNA: GGGAGUUCUACAGUCCGACGAUCUUCCUUCUGUUUCUCAUGGAUUGUAACCUCCUGAAGAGAUCCCACCAAGCCAGCUGCACCAUCAGAAGACCAUAACUCAGAGGCUGGCUGCAGCUGACGAAGCUGAAGGUUCAGAGCGUUCAACAGAGGAUUGAGCAUCA
B7: chr16:45382771:45382772:-_ENSMUSG00000022661_ENSMUST00000163230|mus_mus|mus_mus_mus_hu_True|18_108 (ssRNA)
RNA: GGGAGUUCUACAGUCCGACGAUCCUGAGUGUUAUUGUAAGACAAAUGGACAGGGAGGGCAUGCUUCUCAAAAAAUGUGAGCUAUUGUCUAAGACUAACAAUAUUUAUCUAGCUAUAUAAAAAUAAGAAAUGAAUAAGUUAAGACAACAGAGGAUUGAGCAUCA
B8: chr4:129324761:129324762:-_ENSMUSG00000003731_ENSMUST00000102590|mus_mus|FALSE|FALSE (ssRNA)
RNA: GGGAGUUCUACAGUCCGACGAUCCCAAGCAUACAAGAUUAAUAUGGGUCAGAGCAAGAACACUUUGUUUGGGACUUCUCCCCUCCCCUCCCACCUCCCACCUCUGGAAUAUUCCAUCUGCUCAAGUACCCAAGAGUUACACACCAACAGAGGAUUGAGCAUCA
B9: chr7:54825262:54825263:-_ENSG00000132432_ENST00000352861|hu_hu|hu_hu_hu_mus_False|58_98 (ssRNA)
RNA: GGGAGUUCUACAGUCCGACGAUCCUGCCGGCUGGGCACAAACUGCAGCAUUACCUGAUCCAUGUUUGUUGGAUGGCACACCUAAAACGUAGAGACACGUAGCUCAGGAGAGAACCGAGCCCAACGGAACCGGAAGCUGGCAACCAACAGAGGAUUGAGCAUCA
B10: chr4:38126685:38126686:+_ENSG00000065882_ENST00000510573|hu_mus|FALSE|FALSE (ssRNA)
RNA: GGGAGUUCUACAGUCCGACGAUCGGUCUUCUCCAUCUGCACCAGGCCCAGGUUGGGGAGUGUGUUCUUUAUGAAGUCCACUAUGGUUUCCAGGUUCUCAUGCUGUAGAAUCAAGGGCUUAUGGCUCCCCAAAAGACUUAAAGCCAACAGAGGAUUGAGCAUCA
B11: 114300158_114300769_1724_CDS_ENSMUSG00000021143_ENSMUST00000084891|mouse|control|control (ssRNA)
RNA: GGGAGUUCUACAGUCCGACGAUCUGUCUUGUGAGACAGCUGCUCCACGAAGAGCCGCAGGAUGGCGCUGAGGUAAUGCUGCGCUCCCGCCACUGCGAUCUUCACAGGGGUCGGUGGCUGAGAAUUGCAGUUGCAGUAUCGCUGCAACAGAGGAUUGAGCAUCA
B12: chr8:24049560:24049561:+_ENSMUSG00000031540_ENSMUST00000044331|mus_hu|motif|central (ssRNA)
RNA: GGGAGUUCUACAGUCCGACGAUCACUGCUGACCGAACGGACUGACUGGCUGGGGUGAGACUGAACGGAGGAGAUAGGGCGGUUAUGUUCUGACGCAUGACAGUCUUCAACCAUGGACAUCUGAGGGUCCUCGUCAGCCUGGGUCAACAGAGGAUUGAGCAUCA
B13: chr14:76904430:76904431:+_ENSMUSG00000022010_ENSMUST00000022587|mus_mus|mus_mus_mus_hu_True|8_68 (ssRNA)
RNA: GGGAGUUCUACAGUCCGACGAUCUGCAGCCAAAAACACCCUCGUGGAAAAAAAGAGGGAACACCAGCAGCCUGGUUUAAGCUAGAUAAAAUCUUCUGGCUUUCCGCAGCCCAGGGAGAAACAGAAAUGGUGCUGGCUAAUUUACAACAGAGGAUUGAGCAUCA
B14: chr16:94690093:94690094:+_ENSMUSG00000040785_ENSMUST00000117648|mus_hu|mus_mus_mus_hu_True|28_98 (ssRNA)
RNA: GGGAGUUCUACAGUCCGACGAUCGGGCUGGGAUGACAGCAGACAGCCCUCGAUUCCAGGGGGAAAAAGUCUUAGUCGAUACUAAUUAAAAAGUGUUAAUGAUUUUUAUUACCAAAAUUACAUCUAUAAAAGAUGAAAAGCAAACAACAGAGGAUUGAGCAUCA

Biological target: T1, UNK ZnF1-3
Assay: nsRBNS (natural sequence RNA bind-n-seq); RBNS binding buffer (assumed for nsRBNS): 25 mM Tris pH 7.5, 150 mM KCl, 3 mM MgCl2, 0.01% Triton X-100, 500 ug/ml BSA, 20 U/ml SUPERase-In, 4 C; UNK is unkempt and MSI1 is Musashi-1; names of the RNAs are library labels; protein concentration not given here; high values mean tight binding

| Binder | binding signal [enrichment R] |
| --- | --- |
| B1 | 0.645 |
| B2 | 2.94 |
| B3 | 1.22 |
| B4 | 2.38 |
| B5 | 0.937 |
| B6 | 0.609 |
| B7 | 3.09 |
| B8 | 1.29 |
| B9 | 1.46 |
| B10 | 0.819 |
| B11 | 0.616 |
| B12 | 0.872 |
| B13 | 2.06 |
| B14 | 2.2 |
